# According to PubChem BioAssay AID686978 (National Center for Advancing Translational Sciences (NCATS), 2013):
# Where “and” joins values, the source holds several entries; their conditions need not be identical. Equal values may be shown once. Screen size: about 420,000 compounds; about 64,000 (15%) were called active. The inconclusive results got no clear call from the source; some entries with a clear call stand among them for comparison. Calls come from the whole dose curve; as a rule, active = well fitted inhibition curve with a large enough effect; inconclusive = small, poorly fitted or top-dose-only effect; inactive = flat fitted curve, though single readings scatter. No potency is given beside an inconclusive call; the fits are too rough.
# Assay: qHTS for Inhibitors of human tyrosyl-DNA phosphodiesterase 1 (TDP1): qHTS in cells in absence of CPT; note: nearly all actives have a fitted effect of over 55% in size
# Details: DT40 Tdp1-/- hTDP1 cells, no CPT, ATP luminescence, 48 h; activity change, negative = growth inhibition: at 46.2 µM (top of the series) unless noted
# Method in brief: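 DT40 Tdp1-/-;hTDP1 cells, no CPT (DMSO vehicle only), 400 cells/well; compounds pin-transferred; ≥48 hr, 37 °C; CellTiter-Glo 30 min RT dark, luminescence read.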
# % is set by controls: 0 for no effect and ±100 for the full control effect; potency is the fitted concentration of half-maximal effect; tags give direction and shape of the fitted curve.
Structure (SMILES),Potency,"activity change, negative = growth inhibition"
CCOC(=O)[C@H]1[C@H]2COc3ccc(Cl)cc3[C@@H]2N2C(=O)c3cc(F)ccc3NC(=O)[C@@]12C,"inconclusive [inhibitor, single point]",
Cc1cccc(NC(=O)Cc2coc3ccc4ccccc4c23)n1,active: 16.4 µM,
CC(C)(C)c1ccc(S(=O)(=O)N2CCN(CC(=O)NC(=O)NC3CCCCC3)CC2)cc1,"inconclusive [inhibitor, single point]",
CCOC(=O)Cn1c(=O)oc2cc(S(=O)(=O)Nc3ccc(F)cc3)ccc21,"inconclusive [inhibitor, partial curve]",
COc1ccc(-c2[nH]ncc2CN2CCN(C3CCCCC3)C(=O)C2)cc1F,"inconclusive [inhibitor, partial curve]",
COc1ccc(CCC(=O)NCCS(=O)(=O)N2CCN(c3ccccc3)CC2)cc1,"inconclusive [inhibitor, single point]",
COC(=O)N/N=C/c1cccc(OC(=O)c2ccc3c(c2)OCO3)c1,,inactive: -28.8%
Cc1cccc(N2CCN(CC(O)COc3ccc4ccccc4c3)CC2)c1 (stereo unspecified),"inconclusive [inhibitor, single point]",
Cc1ccc(-c2nn(-c3ccccc3)cc2C=O)o1,"inconclusive [inhibitor, single point]",
Cc1ncsc1C(=O)Nc1nc2c(s1)CCCC2,"inconclusive [inhibitor, partial curve, poor fit]",
CN(CC(=O)Nc1cccnc1)S(=O)(=O)c1ccc(Br)cc1,,inactive: -20.2%
COc1cc(NC(=O)Cn2nc(C(F)(F)F)c(Br)c2C)cc([N+](=O)[O-])c1,active: 20.6 µM,
COc1ccc(Br)cc1CN(C)CC(=O)Nc1cc(Cl)cc(Cl)c1,"inconclusive [inhibitor, single point]",
COc1ccccc1-c1nn2c(-c3cc(C)[nH]n3)nnc2s1,active: 7.94 µM,
CC(=O)NC(CC(C)C)C(=O)NC(=O)NCc1ccccc1 (stereo unspecified),,inactive: -1.24%
S=C1SCN(Cc2cccs2)CN1Cc1cccs1,active: 23.1 µM,
O=C(NCC1CCCO1)c1cc(C(=O)C2CC2)c[nH]1 (stereo unspecified),,inactive: -2.03%
Cn1nc(C(C)(C)C)cc1N1C(=O)CCC1(C)C(=O)NC1CCCCC1 (stereo unspecified),,inactive: -0.18%
COCCn1c(-c2cccs2)csc1=Nc1cccnc1,"inconclusive [inhibitor, single point]",
Cc1cccc2c1NC(=O)C2=Nc1ccc(Cl)cc1,,inactive: -13.3%
CCC(C)(C)NC(=O)CN(Cc1ccccc1)C(=O)CCC(=O)Nc1nccs1,,inactive: -7.74%
CCn1c(SCC(=O)Nc2ccc3c(c2)OCO3)nnc1C(C)C,,inactive: 11.3%
COc1cc(NC(=O)c2cccc([N+](=O)[O-])c2)ccc1NC(=O)c1cc2ccccc2o1,active: 8.2 µM,

Structure (SMILES),Potency,"activity change, negative = growth inhibition"
CC1(c2ccc(Cl)cc2)NC(=O)N(CC(=O)N2CCN(S(=O)(=O)c3ccccc3)CC2)C1=O (stereo unspecified),"inconclusive [inhibitor, single point]",
Cc1oc2c(C)c3oc(=O)c(CCC(=O)N4C[C@H]5C[C@@H](C4)c4cccc(=O)n4C5)c(C)c3cc2c1C,"inconclusive [inhibitor, single point]",
Oc1ccc(/C=C/c2nc(-c3ccccc3O)n(-c3ccccc3)n2)c(O)c1,"inconclusive [inhibitor, single point]",
CCOc1ccc(NC(=O)CSc2nc(-c3cccs3)cc(C(F)(F)F)c2C#N)cc1,,inactive: -2.19%
O=Cc1ccc(-c2cccc([N+](=O)[O-])c2)o1,"inconclusive [inhibitor, single point]",
O=S1(=O)CCC(NC(=S)NCCNC(=S)NC2CCS(=O)(=O)C2)C1 (stereo unspecified),,inactive: 0.49%
CC1(NC(=O)C2CCN(C(=O)Nc3ccccc3)CC2)CCS(=O)(=O)C1 (stereo unspecified),,inactive: -7.58%
Cc1ccc(Cn2c(=O)c3c(nc4n3CCCN4Cc3ccccc3)n(C)c2=O)cc1,"inconclusive [inhibitor, single point]",
CCc1cccc(CC)c1NC(=S)/C(=C(\[O-])c1ccc(Cl)s1)[n+]1ccccc1,active: 1.84 µM,
CCOC(=O)C1(C)CCCN(C(=O)c2ccccc2)C1 (stereo unspecified),,inactive: -6.8%
O=c1c(-c2cccs2)nc2cnc(N3CCNCC3)nc2n1CCc1ccccc1,"inconclusive [inhibitor, single point]",
O=C(/C=C/c1ccc(Cl)c(Cl)c1)NCc1ccco1,"inconclusive [inhibitor, single point]",
NNC(=S)Nc1cc(S(=O)(=O)N2CCOCC2)ccc1N1CCOCC1,"inconclusive [inhibitor, single point]",
CCC(C)Nc1nc(Cl)nc(N(C#N)CN2C(=O)c3ccccc3S2(=O)=O)n1 (stereo unspecified),"inconclusive [inhibitor, single point]",
COc1ccccc1NC(=O)CSC1=Nc2ccccc2C2=NC(CC(=O)NCCc3ccccc3)C(=O)N12 (stereo unspecified),"inconclusive [inhibitor, single point]",
CCCN1CNc2c(c(=O)[nH]c(=S)n2CCc2ccc(Cl)c(Cl)c2)C1,"inconclusive [inhibitor, single point]",
CCCCCCSc1cccc(-c2nc3ccc(Cl)cn3c2NCCCC)c1,active: 18.4 µM and active: 13 µM,
Cc1ccc(C(=O)NCC(=O)NCc2ccc(Cl)cc2)s1,,inactive: -15.7%
O=S(=O)(c1ccccc1)N1CCC(O)(CSc2ccc(F)cc2)CC1,"inconclusive [inhibitor, single point]",
CCCCC/C=C\C/C=C\C/C=C\C/C=C\CCCC(=O)O[C@@H](CO)COCCCCCCCCCCCCCCCC,,inactive: 0.342% [at 4.12 µM]
Cc1cc(-c2ccnc(-n3ncc(C(=O)NCCc4cccnc4)c3C)n2)c(C)s1,"inconclusive [inhibitor, single point]",
CCCCCCC(=O)NN1CCN(C)CC1,,inactive: -0.804%
CCCCn1c(NC(C)CC)nc2c1c(=O)[nH]c(=O)n2C (stereo unspecified),"inconclusive [inhibitor, partial curve]",
